# According to PMC6602471:
# The other results are listed elsewhere or left out. At the low end of the ranking, values are background and their order means little.
# Biological target: T1, ETS1 (UniProt P14921)
# T1 sequence: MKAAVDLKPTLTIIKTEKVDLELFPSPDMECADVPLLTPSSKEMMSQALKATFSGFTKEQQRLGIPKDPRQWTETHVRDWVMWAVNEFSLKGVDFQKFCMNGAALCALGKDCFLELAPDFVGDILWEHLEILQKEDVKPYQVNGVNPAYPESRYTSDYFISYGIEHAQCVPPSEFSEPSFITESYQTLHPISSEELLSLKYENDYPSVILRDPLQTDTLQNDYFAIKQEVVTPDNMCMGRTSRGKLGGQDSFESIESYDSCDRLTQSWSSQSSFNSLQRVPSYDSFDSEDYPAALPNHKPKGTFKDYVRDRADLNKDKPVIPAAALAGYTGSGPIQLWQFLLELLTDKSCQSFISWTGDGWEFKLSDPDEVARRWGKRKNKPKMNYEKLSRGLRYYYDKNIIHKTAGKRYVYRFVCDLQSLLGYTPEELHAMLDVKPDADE
# Assay: custom PBM
# Settings: custom protein-binding microarray; buffer, salt, pH and temperature not stated; high values mean tight binding; double strand, one strand shown
row,Sequence,binding signal (log fluorescence intensity)
1,GATTAATTTCTGCCCTTGTTCGCACGTGCCATAACAGTCTTGATTCGCTTGACGCTGCTG,8.22
2,TCCGGCGACCAGCTCCACCCACTTCAGGCCTTGTAGGTCTTGATTCGCTTGACGCTGCTG,8.23
3,TGGAAGTGTCGTAAACGTCGGATATCCGGTTCTTCTGTCTTGATTCGCTTGACGCTGCTG,11.9
4,GTTTAATTTCTGCCCTTATTCGCACGTGCCATAACAGTCTTGATTCGCTTGACGCTGCTG,8.04
5,GCTGCTGCGGTGCATACCCCACCGGAGGTGACCCCGGTCTTGATTCGCTTGACGCTGCTG,8.31
6,TCCGGCTACCAGCTCCACCCACTTCAGGCCTAGTAGGTCTTGATTCGCTTGACGCTGCTG,8.18
7,TATTAATTTCTGCCCTTATTCGCACGTGCCATAACAGTCTTGATTCGCTTGACGCTGCTG,8.25
8,CTGGGACTTGACCCAACTCTGCCACGTGGGACGTTTGTCTTGATTCGCTTGACGCTGCTG,8.08
9,GTGTATGGGATCCCATCCAACACACGTGTTAAAATGGTCTTGATTCGCTTGACGCTGCTG,8.29
10,GCTGCTGCGGTGCATACCCCACCGGATGTGACCCTGGTCTTGATTCGCTTGACGCTGCTG,10.1
11,GGAAAAAGGCACAGGGTAACACCGGAAGTGGGCTTAGTCTTGATTCGCTTGACGCTGCTG,12.1
12,TACTGACTTATATATGCGAATGCTCATGAATAGACCGTCTTGATTCGCTTGACGCTGCTG,8.09
13,TGTCGGGTAAGGGAATGTCGATCACGTGAATGAAAAGTCTTGATTCGCTTGACGCTGCTG,8.08
14,TCCGGCTACGAGCTCCACCCACTTCAGGCCTTGTAGGTCTTGATTCGCTTGACGCTGCTG,8.39
15,GCTGCTGCAGTGCATACCCCACCGGATGTGACCCCGGTCTTGATTCGCTTGACGCTGCTG,10.2
16,TAAAGGGAAGACGGTTGTGGTAGTTCCGGGAATTAAGTCTTGATTCGCTTGACGCTGCTG,8.53
17,CGGAAGTGTCGTAAAAGTCGGATATCCGGTTCTTCTGTCTTGATTCGCTTGACGCTGCTG,12.1
18,CGGAAGTGTCGTAAACGTCGGATATCCGGTGCTTCTGTCTTGATTCGCTTGACGCTGCTG,11.9
19,TACTGACTTATATAGGCGAATGCACATGAATAGACCGTCTTGATTCGCTTGACGCTGCTG,8.31
20,CTGGGACTTGACCCAACTATGCCACGTGGGTCGTTTGTCTTGATTCGCTTGACGCTGCTG,8.18
21,GATTAATTTCTGCCCTTATTAGCACGTGCCATAACAGTCTTGATTCGCTTGACGCTGCTG,8.19

row,Sequence,binding signal (log fluorescence intensity)
1,TACTGACTTATATATGCGAATGCACATGAATTGACCGTCTTGATTCGCTTGACGCTGCTG,8.29
2,TCCGGCTATCAGCTCCACCCACTTCAGGCCTTGTAGGTCTTGATTCGCTTGACGCTGCTG,8.34
3,CACAATTTTTACAGTAATGTAGCACGCGTAACCCCTGTCTTGATTCGCTTGACGCTGCTG,8.28
4,TCCGGCTACCAGCTCCACCCACTTCCGGCCTTGTAGGTCTTGATTCGCTTGACGCTGCTG,13.1
5,GGAAACAGGCCCAGGGTAACACCGGAAGTGGGCTTAGTCTTGATTCGCTTGACGCTGCTG,11.8
6,GGAAAATGGCCCAGGGTAACACCGGAAGTGGGCTTAGTCTTGATTCGCTTGACGCTGCTG,12
7,CAGCATAGGACTTATTCCCTGAAGCAATTGATAACCGTCTTGATTCGCTTGACGCTGCTG,8.35
8,TGTCGGGTAAGGAAATGTAGATCACGTGAATGAAAAGTCTTGATTCGCTTGACGCTGCTG,8.48
9,CACAATTTTTATAGTAATGTAGCACGCGTAACTCCTGTCTTGATTCGCTTGACGCTGCTG,8.41
10,CTGGGACCTGACCCAACTCTGCCACGTGGGTCGTTTGTCTTGATTCGCTTGACGCTGCTG,8.18
11,GATTAATTTCTGCCCTTATTCGCAGGTGCCATAACAGTCTTGATTCGCTTGACGCTGCTG,8.22
12,TGTCGGGTAAGGGAATGTAGATCACATGAATGAAAAGTCTTGATTCGCTTGACGCTGCTG,8.27
13,CTGGGACTTGACCCAACTCTGCCACGTGGGTCGCTTGTCTTGATTCGCTTGACGCTGCTG,8.36
14,TGTCGGGTAAGGGAATGTATATCACGTGAATGAAAAGTCTTGATTCGCTTGACGCTGCTG,8.29
15,CACAATTTTTACAGTAATGTAGCACGCGTAACTGCTGTCTTGATTCGCTTGACGCTGCTG,8.17
16,GATTAATTTCTGCCCTTAGTCGCACGTGCCATAACAGTCTTGATTCGCTTGACGCTGCTG,8.23
17,CACAATTTTTACAGTAATGTAGCACGCGTAACTACTGTCTTGATTCGCTTGACGCTGCTG,8.22
18,TGTCGGGTAAGGGAATGTAGATCACGTGAATGAACAGTCTTGATTCGCTTGACGCTGCTG,8.22
19,GCTGCTGCGGTGCATAGCCCACCGGATGTGACCCCGGTCTTGATTCGCTTGACGCTGCTG,10.1
20,CGGAAGTGTCGTAAACGTTGGATATCCGGTTCTTCTGTCTTGATTCGCTTGACGCTGCTG,11.5
21,GATTAATTTCTGCCCTTATTCGCACGGGCCATAACAGTCTTGATTCGCTTGACGCTGCTG,8.33

row,Sequence,binding signal (log fluorescence intensity)
1,GCTGCTGCGGTGCCTACCCCACCGGATGTGACCCCGGTCTTGATTCGCTTGACGCTGCTG,10
2,CAGCATATGACTTCTTCCCTGAAGCAATTGATAACCGTCTTGATTCGCTTGACGCTGCTG,8.31
3,TACTGACTTATATATGCTAATGCACATGAATAGACCGTCTTGATTCGCTTGACGCTGCTG,8.2
4,GCAGCTGCGGTGCATACCCCACCGGATGTGACCCCGGTCTTGATTCGCTTGACGCTGCTG,10.3
5,TGTCGGGTAAGGGAATGTAGATTACGTGAATGAAAAGTCTTGATTCGCTTGACGCTGCTG,8.2
6,GATTAATTTCTGCCCTTATTCGCATGTGCCATAACAGTCTTGATTCGCTTGACGCTGCTG,8.26
7,CTGGGACTTGACCTAACTCTGCCACGTGGGTCGTTTGTCTTGATTCGCTTGACGCTGCTG,8.09
8,CGGAAGTGTTGTAAACGTCGGATATCCGGTTCTTCTGTCTTGATTCGCTTGACGCTGCTG,11.6
9,CCTGCTGCGGTGCATACCCCACCGGATGTGACCCCGGTCTTGATTCGCTTGACGCTGCTG,10.4
10,GGAAAAAGGCCTAGGGTAACACCGGAAGTGGGCTTAGTCTTGATTCGCTTGACGCTGCTG,12.1
11,TGTCGGGTAAGGGAATGTAGATCACGTGAATGAAAGGTCTTGATTCGCTTGACGCTGCTG,8.27
12,GTGTATAGGATCCCATCGAACACACGTGTTAAAATGGTCTTGATTCGCTTGACGCTGCTG,8.36
13,GAGCATAGGACTTCTTCCCTGAAGCAATTGATAACCGTCTTGATTCGCTTGACGCTGCTG,8.32
14,TCCGGCTACCAGCTCCACCGACTTCAGGCCTTGTAGGTCTTGATTCGCTTGACGCTGCTG,8.07
15,GATTCATTTCTGCCCTTATTCGCACGTGCCATAACAGTCTTGATTCGCTTGACGCTGCTG,8.26
16,GTTTATAGGATCCCATCCAACACACGTGTTAAAATGGTCTTGATTCGCTTGACGCTGCTG,8.21
17,GTGCATAGGATCCCATCCAACACACGTGTTAAAATGGTCTTGATTCGCTTGACGCTGCTG,8.28
18,CACAATTTTTGCAGTAATGTAGCACGCGTAACTCCTGTCTTGATTCGCTTGACGCTGCTG,8.13
19,GATTAATTTCTGCCCATATTCGCACGTGCCATAACAGTCTTGATTCGCTTGACGCTGCTG,8.2
20,GCTGCTGCGGTGCATACCCCACCGGCTGTGACCCCGGTCTTGATTCGCTTGACGCTGCTG,8.16
21,TGTCGGGTAAGGGAATCTAGATCACGTGAATGAAAAGTCTTGATTCGCTTGACGCTGCTG,8.29

row,Sequence,binding signal (log fluorescence intensity)
1,TCCGGCTACCAGCACCACCCACTTCAGGCCTTGTAGGTCTTGATTCGCTTGACGCTGCTG,8.29
2,TACTGACTTATATATGCGAATTCACATGAATAGACCGTCTTGATTCGCTTGACGCTGCTG,8.31
3,TATTGACTTATATATGCGAATGCACATGAATAGACCGTCTTGATTCGCTTGACGCTGCTG,8.12
4,CTGGGACTTGACCCAACTCTGCCACGTGGGTCCTTTGTCTTGATTCGCTTGACGCTGCTG,8
5,CAGCATAGGACTGCTTCCCTGAAGCAATTGATAACCGTCTTGATTCGCTTGACGCTGCTG,8.31
6,TACTAACTTATATATGCGAATGCACATGAATAGACCGTCTTGATTCGCTTGACGCTGCTG,8.39
7,CAAAGGGAAGACGGTTGTGGTAGTTCCGGGTATTAAGTCTTGATTCGCTTGACGCTGCTG,8.6
8,GATTAATTTCTGCCCTTATTCGCCCGTGCCATAACAGTCTTGATTCGCTTGACGCTGCTG,8.24
9,GCTGCTGCGGTGCATACCCCACCGGATGTGACCCCAGTCTTGATTCGCTTGACGCTGCTG,10.1
10,TGTCGGGTAAGGGAATGTAGATCACGTGATTGAAAAGTCTTGATTCGCTTGACGCTGCTG,8.38
11,GATTAATTTCTGCCCTTATTCGCACGTGGCATAACAGTCTTGATTCGCTTGACGCTGCTG,8.25
12,GCTGCTGCGGTGCATACCCCACCGGATGTCACCCCGGTCTTGATTCGCTTGACGCTGCTG,9.82
13,TACTGACTTATATATGCGAATGCACTTGAATAGACCGTCTTGATTCGCTTGACGCTGCTG,8.34
14,GGCAAAAGGCCCAGGGTAACACCGGAAGTGGGCTTAGTCTTGATTCGCTTGACGCTGCTG,11.7
15,CGGAAGAGTCGTAAACGTCGGATATCCGGTTCTTCTGTCTTGATTCGCTTGACGCTGCTG,11.8
16,TAAAGGGAAGACGGTTGTGGTAGGTCCGGGTATTAAGTCTTGATTCGCTTGACGCTGCTG,8.3
17,TGTCGGGTAAGCGAATGTAGATCACGTGAATGAAAAGTCTTGATTCGCTTGACGCTGCTG,8.18
18,GCTGCTGCGGTCCATACCCCACCGGATGTGACCCCGGTCTTGATTCGCTTGACGCTGCTG,10.2
